Results as given in the supplement of paper PMC4967469.
IC50 is the fitted dose that halves viability relative to control wells, and lower means more sensitive; where the fit passes the top or lowest dose, that dose stands as a limit. AUC is the area under the same curve over the 256-fold range up to the top dose, as a fraction; values near 1 show little effect. The top dose, if marked as inferred, is not printed in the source and was worked back from the curve model.

Tests used:
Test in all cases: Viability of human cancer cell lines after 72 h of drug (GDSC screen)
CAY10603 = compound: CC(C)(C)OC(=O)Nc1ccc(-c2cc(C(=O)NCCCCCCC(=O)NO)no2)cc1 [CAY10603]; settings: top dose 20 µM; top dose inferred
Procedure: (§1)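 Human cancer cell lines in 384-well plates, medium with 10% serum, drug for 72 h over a 256-fold dose range (nine 2-fold or five 4-fold steps up to the top dose). Adherent lines were fixed and stained with the nucleic acid dye Syto60, suspension lines read with resazurin; signal relative to control wells, capped at 0 and 100%. One two-parameter sigmoid per drug and line, fitted in a mixed model over all curves with the slope shared within a line.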

ACHP (KIN001-260) = compound: N#Cc1c(C2CCNCC2)cc(-c2c(O)cccc2OCC2CC2)nc1N [ACHP (KIN001-260)]; settings: top dose 20 µM; top dose inferred
Procedure: as §1

CH5424802 = compound: CCc1cc2c(cc1N1CCC(N3CCOCC3)CC1)C(C)(C)c1[nH]c3cc(C#N)ccc3c1C2=O [CH5424802]; settings: top dose 5.12 µM; top dose inferred
Procedure: as §1

Row | Cell Line | AUC (CAY10603) | IC50 (CAY10603) [µM] | AUC (ACHP (KIN001-260)) | IC50 (ACHP (KIN001-260)) [µM] | AUC (CH5424802) | IC50 (CH5424802) [µM]
1 | 42-MG-BA (glioma, adherent) | 0.639 | 3.12 | 0.973 | > 20 | 0.985 | > 5.12
2 | 201T (lung adenocarcinoma, adherent) | 0.828 | 16.9 | 0.965 | > 20 | 0.976 | > 5.12
3 | 647-V (bladder, adherent) | 0.76 | 7.07 | 0.982 | > 20 | 0.985 | > 5.12
4 | 697 (lymphoblastic leukaemia, suspension) | 0.192 | 0.196 | 0.915 | 19.3 | 0.948 | > 5.12
5 | 769-P (kidney, adherent) | 0.444 | 0.866 | 0.953 | > 20 | 0.981 | > 5.12
6 | 786-0 (kidney, adherent) | 0.466 | 1.02 | 0.98 | > 20 | 0.985 | > 5.12
7 | 5637 (bladder, adherent) | 0.362 | 0.541 | 0.97 | > 20 | 0.987 | > 5.12
8 | 23132-87 (stomach, adherent) | 0.514 | 1.37 | 0.976 | > 20 | 0.986 | > 5.12
9 | A3-KAW (B-cell lymphoma, suspension) | 0.34 | 0.497 | 0.825 | 8.87 | 0.96 | > 5.12
10 | A4-Fuk (B-cell lymphoma, suspension) | 0.838 | 14.4 | 0.84 | 14.7 | 0.979 | > 5.12
11 | A172 (glioma, adherent) | 0.526 | 1.46 | 0.984 | > 20 | 0.988 | > 5.12
12 | A204 (rhabdomyosarcoma, adherent) | 0.521 | 1.45 | 0.928 | > 20 | 0.977 | > 5.12
13 | A431 (skin, adherent) | 0.368 | 0.55 | 0.966 | > 20 | 0.982 | > 5.12
14 | ACHN (kidney, adherent) | 0.627 | 2.94 | 0.968 | > 20 | 0.972 | > 5.12
15 | AM-38 (glioma, semi-adherent) | 0.391 | 0.624 | 0.967 | > 20 | 0.983 | > 5.12
16 | AN3-CA (endometrium, adherent) | 0.696 | 4.7 | 0.984 | > 20 | 0.983 | > 5.12
17 | ARH-77 (myeloma, suspension) | 0.35 | 0.489 | 0.846 | 13.9 | 0.984 | > 5.12
18 | BB30-HNC (head and neck, adherent) | 0.618 | 2.62 | 0.978 | > 20 | 0.973 | > 5.12

Row | Cell Line | AUC (CAY10603) | IC50 (CAY10603) [µM] | AUC (ACHP (KIN001-260)) | IC50 (ACHP (KIN001-260)) [µM] | AUC (CH5424802) | IC50 (CH5424802) [µM]
19 | BB49-HNC (head and neck, adherent) | 0.812 | 16.7 | 0.965 | > 20 | 0.976 | > 5.12
20 | BC-1 (B-cell lymphoma, suspension) | 0.397 | 0.681 | 0.862 | 13.1 | 0.987 | > 5.12
21 | BC-3 (B-cell lymphoma, suspension) | 0.383 | 0.618 | 0.918 | > 20 | 0.973 | > 5.12
22 | BCPAP (thyroid, adherent) | 0.347 | 0.493 | 0.96 | > 20 | 0.986 | > 5.12
23 | BE2-M17 (neuroblastoma, adherent) | 0.597 | 2.33 | 0.986 | > 20 | 0.986 | > 5.12
24 | BEN (non-small cell lung carcinoma, adherent) | 0.765 | 8.35 | 0.973 | > 20 | 0.971 | > 5.12
25 | BFTC-905 (bladder, adherent) | 0.608 | 2.37 | 0.99 | > 20 | 0.99 | > 5.12
26 | BFTC-909 (kidney, adherent) | 0.694 | 4.32 | 0.975 | > 20 | 0.987 | > 5.12
27 | BHY (head and neck, adherent) | 0.528 | 1.49 | 0.986 | > 20 | 0.975 | > 5.12
28 | BICR22 (head and neck, adherent) | 0.764 | 8.33 | 0.983 | > 20 | 0.977 | > 5.12
29 | BICR31 (head and neck, adherent) | 0.699 | 4.57 | 0.986 | > 20 | 0.986 | > 5.12
30 | BICR78 (head and neck, adherent) | 0.548 | 1.72 | 0.981 | > 20 | 0.973 | > 5.12
31 | BPH-1 (prostate, adherent) | 0.364 | 0.503 | 0.982 | > 20 | 0.927 | > 5.12
32 | BV-173 (chronic myeloid leukaemia, suspension) | 0.283 | 0.331 | 0.96 | > 20 | 0.979 | > 5.12
33 | BxPC-3 (pancreas, adherent) | 0.582 | 2.16 | 0.975 | > 20 | 0.975 | > 5.12
34 | C3A (liver, adherent) | 0.813 | 11.4 | 0.988 | > 20 | 0.988 | > 5.12
35 | C-33-A (cervix, adherent) | 0.289 | 0.316 | 0.96 | > 20 | 0.984 | > 5.12
